Test results from paper PMC4336329 (PLoS ONE, 2015).
Out of some 310,000 compounds screened, about 2,200 (0.71%) showed an effect of 50% or more. The effect is printed as a negative number. The list shows a part of the results.

The compounds below were run against human ether-à-go-go-related gene (hERG) potassium channel (human, UniProt Q12809) (assay: primary screen, population patch clamp on CHO cells stably expressing hERG).
Sequence of human ether-à-go-go-related gene (hERG) potassium channel (Q12809 whole entry, looked up): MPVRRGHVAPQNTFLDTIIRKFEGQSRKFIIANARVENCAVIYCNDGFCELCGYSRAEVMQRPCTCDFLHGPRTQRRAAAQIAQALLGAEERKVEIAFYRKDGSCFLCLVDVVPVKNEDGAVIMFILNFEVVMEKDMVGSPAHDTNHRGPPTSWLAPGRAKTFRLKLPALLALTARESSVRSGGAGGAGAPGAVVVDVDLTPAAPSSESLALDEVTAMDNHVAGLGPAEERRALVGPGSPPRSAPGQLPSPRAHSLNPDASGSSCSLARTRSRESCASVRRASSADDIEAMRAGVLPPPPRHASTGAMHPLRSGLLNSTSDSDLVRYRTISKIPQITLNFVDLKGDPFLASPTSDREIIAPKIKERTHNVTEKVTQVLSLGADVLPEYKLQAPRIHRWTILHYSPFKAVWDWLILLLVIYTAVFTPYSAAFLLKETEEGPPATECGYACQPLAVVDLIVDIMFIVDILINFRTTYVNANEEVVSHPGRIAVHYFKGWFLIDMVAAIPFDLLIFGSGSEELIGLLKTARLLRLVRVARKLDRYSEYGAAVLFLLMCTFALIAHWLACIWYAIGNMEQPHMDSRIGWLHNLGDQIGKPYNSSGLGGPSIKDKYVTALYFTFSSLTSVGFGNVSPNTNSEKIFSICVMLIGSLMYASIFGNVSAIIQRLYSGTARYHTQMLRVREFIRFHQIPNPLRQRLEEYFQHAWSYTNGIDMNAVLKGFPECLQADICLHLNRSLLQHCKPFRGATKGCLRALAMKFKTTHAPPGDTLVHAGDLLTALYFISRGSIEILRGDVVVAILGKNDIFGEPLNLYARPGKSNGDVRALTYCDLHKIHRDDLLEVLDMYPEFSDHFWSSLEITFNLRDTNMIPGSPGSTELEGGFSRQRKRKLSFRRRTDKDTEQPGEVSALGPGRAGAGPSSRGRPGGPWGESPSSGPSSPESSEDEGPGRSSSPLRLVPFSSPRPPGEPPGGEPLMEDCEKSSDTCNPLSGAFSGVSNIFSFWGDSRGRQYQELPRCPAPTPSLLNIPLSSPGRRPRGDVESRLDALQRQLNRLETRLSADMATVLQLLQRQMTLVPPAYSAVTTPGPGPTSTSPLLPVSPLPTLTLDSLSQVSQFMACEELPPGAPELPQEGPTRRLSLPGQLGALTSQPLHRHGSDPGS

| Structure (SMILES) | hERG current change (%, negative = inhibition) at 1uM |
| --- | --- |
| Cc1cccc(N2CCN(C(=O)CC(NC(=O)c3ccccc3Cl)c3ccccc3)CC2)c1C (stereo not shown) | -28.4% |
| COC(=O)c1cc(S(=O)(=O)NCC2CCN(CCc3cccs3)CC2)c[nH]1 | -3.63% |
| CC(=O)c1ccc(NC(=O)CN(C)CC(=O)Nc2cccc(F)c2)cc1 | 0.653% |
| Cc1ccc(-c2cc(C(=O)NN=C3CCCC3)c3ccccc3n2)cc1 | 12.6% |
| S=C(NC1CCCC1)N1CCN(c2cccc(Cl)c2)CC1 | -7.24% |
| Cc1ccc(-c2cc(C(=O)N3CCN(c4ncccn4)CC3)c3ccccc3n2)cc1 | 12.8% |
| CN(C)S(=O)(=O)N1CCN(CC(O)COc2ccc(-c3ccccc3)cc2)CC1 (stereo not shown) | 4.4% |
| O=C(NCC(=O)N(c1ccc(F)cc1)C(C(=O)NC1CCCCC1)c1ccncc1)c1ccco1 (stereo not shown) | 14.4% |
| O=C(N[C@@H](Cc1ccc(O)cc1)C(=O)O)C(c1ccccc1)c1ccccc1 | 12.5% |
| COc1cc(OC)nc(Oc2ccccc2C(=O)Oc2ccccc2Cl)n1 | 7.32% |
| O=C(Nc1nccs1)C1CCCN(S(=O)(=O)c2cccc3cccnc23)C1 (stereo not shown) | 5.43% |
| CC(C)C(c1nnnn1CCc1ccccc1)N1CCSCC1 (stereo not shown) | 13.3% |
| CCOc1cc(C)c(S(=O)(=O)Nc2ccc(Cl)cn2)cc1C | 14.1% |
| CCc1ccc(NS(=O)(=O)c2ccc3oc(=O)ccc3c2)cc1 | 6.73% |
| Cc1cc2cc(CN(Cc3ccco3)C(=O)NCc3ccccc3)c(=O)[nH]c2cc1C | 1.62% |
| CCCCn1c(=O)[nH]c(=O)c2c1nc(-c1ccccc1OC(F)F)n2C | 10% |
| CCn1c2ccccc2c2cc(CNCc3ccc(OC)cc3OC)ccc21.O=C(O)C(=O)O | -47.5% |
| CC(=O)Nc1sc(C)c(C)c1C(=O)OC1CCOC1=O (stereo not shown) | 2.28% |
| CC(C)(C)n1cnc2cc(NCc3cccs3)ccc21 | -0.668% |
| Cc1cccc(NC(=O)NNC(=O)CCc2ccccc2)c1 | 13.7% |
| O=C(O)C(=O)O.c1ccc(-c2cc(N3CCOCC3)nc3ccccc23)cc1 | -9.13% |
| C=CCNC(=S)/N=c1/ccccn1CCC | 16.4% |
| Cc1nc(SCC(=O)Nc2ccc3c(c2)OCCO3)c2oc3ccccc3c2n1 | 4.15% |

| Structure (SMILES) | hERG current change (%, negative = inhibition) at 1uM |
| --- | --- |
| COc1ccccc1C(c1nnnn1CCc1ccccc1)N1CCCCCC1 (stereo not shown) | -1% |
| COc1ccc(/C(O)=C/c2nc3ccc(C(=O)NCCc4cccc(C)c4)cc3[nH]c2=O)cc1OC | 10.4% |
| COC(=O)c1ccc2c(c1)NC(=O)C(N(CC(C)C)CC(C)C)S2 (stereo not shown) | 11.2% |
| COc1ccc(CCn2c(=N)c(C(=O)NCC3CCCO3)cc3c(=O)n4ccccc4nc32)cc1OC (stereo not shown) | -79.9% |
| Oc1ccc(-c2cccc(-c3ccc(O)cc3)n2)cc1 | 10.6% |
| O=c1cnnc(N/N=C/c2ccc3c(c2)OCO3)[nH]1 | 11.6% |
| CCOc1cc(N2CCOCC2)c(OCC)cc1NC(=O)CSc1ncn[nH]1 | 9.98% |
| Cc1cc(N2CCN(C)CC2)ccc1NC(=O)c1cccc(S(=O)(=O)N2CCc3ccccc3C2)c1 | 13.3% |
| COc1cc2c(cc1OC)C(C)N(C(=O)C1COc3ccccc3O1)CC2 (stereo not shown) | -5.23% |
| COc1ccccc1OC(=O)CN1C(=O)c2ccccc2C1=O | -0.292% |
| CCC(C)[C@H](NC(=O)N1CCC(C)CC1)C(=O)O (stereo partly shown) | -1.19% |
| O=C(COc1ccc(Cl)c(Cl)c1)NC1CCS(=O)(=O)C1 (stereo not shown) | 13.9% |
| O=S(=O)(c1ccccc1)c1cnc2ccccc2c1 | 13.2% |
| O=C(N/N=C/c1ccc(O)cc1)NC12CC3CC(CC(C3)C1)C2 | -10.3% |
| O=C1NC2c3ccccc3C(=O)N2c2c1cnn2-c1ccccc1 (stereo not shown) | 0.288% |
| O=C(CCN1C(=O)/C(=C\c2cccs2)SC1=S)Nc1ccccn1 | 10.2% |
| O=c1c2ccccc2nc2c3ccccc3ncn12 | 16% |
| CC(C)CC(=O)Nc1ccc(S(=O)(=O)N2CCCC2)cc1 | 19.4% |
| COC(=O)C1C2C=CC3(CN(C(C)c4ccc(OC)cc4)C(=O)C13)O2 (stereo not shown) | 13.1% |
| CCc1ccc(NC(=O)CCn2c(=O)c3cccn3c3ccccc32)cc1 | 5.43% |
| COc1ccccc1CN1CC(C(=O)NCC2CCCO2)CC1=O (stereo not shown) | 12.4% |
| Cc1ccc(C(O)P(=O)(OCc2ccccc2)c2ccc(N(C)C)cc2)cc1 (stereo not shown) | 11.9% |
| COC(=O)C1(C)NC(c2ccco2)C2C(=O)N(c3ccc(F)cc3)C(=O)C21 (stereo not shown) | 9.56% |
